In PubChem BioAssay AID1030 (National Center for Advancing Translational Sciences (NCATS), 2008):
The campaign covered roughly 220,000 compounds. About 16,000 (7.3%) were called active. This list was built around the results that the source calls inconclusive (neither active nor inactive); the mix of calls is not that of the screen. The call rests on the fitted dose curve; in most records, active means well fitted inhibition curve with a large enough effect (not every such curve was filed as active); inconclusive means small, poorly fitted or top-dose-only effect, or another doubt; inactive means no such curve, though single readings can be large or run the other way. No potency is given beside an inconclusive call; the fits are too rough.

Target: Aldehyde dehydrogenase 1A1 (Homo sapiens) (UniProt P00352)
UniProt P00352, sequence (P00352 whole entry, looked up): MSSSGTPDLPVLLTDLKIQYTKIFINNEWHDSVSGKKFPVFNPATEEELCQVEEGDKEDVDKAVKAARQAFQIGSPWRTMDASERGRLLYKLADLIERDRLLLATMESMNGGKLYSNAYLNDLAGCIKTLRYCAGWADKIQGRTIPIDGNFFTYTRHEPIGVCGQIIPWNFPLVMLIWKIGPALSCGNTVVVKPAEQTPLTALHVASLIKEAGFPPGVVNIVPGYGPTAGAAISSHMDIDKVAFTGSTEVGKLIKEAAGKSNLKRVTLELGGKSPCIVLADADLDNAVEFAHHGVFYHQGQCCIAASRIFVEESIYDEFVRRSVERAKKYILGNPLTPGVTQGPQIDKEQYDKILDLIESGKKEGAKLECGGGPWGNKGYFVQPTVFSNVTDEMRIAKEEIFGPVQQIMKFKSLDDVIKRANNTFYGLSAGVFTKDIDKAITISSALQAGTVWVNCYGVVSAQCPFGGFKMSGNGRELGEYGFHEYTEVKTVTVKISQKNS
Experiment: qHTS Assay for Inhibitors of Aldehyde Dehydrogenase 1 (ALDH1A1)
Conditions: Purified ALDH1A1, NADH fluorescence, propionaldehyde substrate; series mostly up to 75.3 µM
Potency means the concentration at half of the fitted maximal effect; tags describe the fitted curve by direction and shape.

| Structure (SMILES) | Potency |
| --- | --- |
| C[C@@H]1Nc2ccc(Cl)cc2S(=O)(=O)N1 | inconclusive [inhibitor, single point] |
| COc1ccc(N2CCN(C(=O)CSc3ncccc3-c3nc4ccccc4[nH]3)CC2)cc1 | inconclusive [inhibitor, single point] |
| N/C(Cc1cccc2ccccc12)=N\OC(=O)Cc1cccs1 | inconclusive [inhibitor, single point] |
| O=C(O/N=C(\c1ccccc1)c1ccccn1)c1ccc(Cl)c(Cl)c1 | inconclusive [inhibitor, single point] |
| Cc1ccc2nc(-c3ccc(NS(C)(=O)=O)cc3)cc(-c3ccccc3)c2c1 | inconclusive [inhibitor, partial curve] |
| O=C(c1ccc2c(c1)OCO2)N1CCc2ccccc2C1 | inconclusive [inhibitor, single point] |
| CCN(CC)C(=O)C1=C(C)Nc2nc3ccccc3n2C1c1cccc(OC)c1 (configuration not stated) | inconclusive [inhibitor, partial curve, poor fit] |
| S=C1N[C@H](c2ccccc2)N[C@H](c2ccccc2)S1 | active: 3.16 µM |
| COc1ccc(-c2cnc3c(c2)CCC3(C#N)C#N)cc1 | inconclusive [inhibitor, partial curve] |
| COc1ccc(OCC(=O)N/N=C(\C)CC(=O)Nc2ccc(OC)cc2[N+](=O)[O-])cc1 | active: 20 µM |
| COC(=O)c1cc(-c2ccc3ccccc3c2)[nH]c(=O)c1C#N | inconclusive [inhibitor, single point] |
| COC(=O)[C@@]1(Cc2ccc(OC)cc2)[C@H]2c3cc(C(=O)N(C)C)n(Cc4ccc(C)o4)c3C[C@H]2CN1C(=O)c1ccccc1 | inconclusive [inhibitor, single point] |
| NC(=O)c1ccccc1OCC(=O)NC12CC3CC(CC(C3)C1)C2 | inconclusive [inhibitor, partial curve] |
| O=C(c1cccc(S(=O)(=O)N2CCCC2)c1)c1nnc(-c2ccncc2)o1 | inconclusive [inhibitor, single point] |
| CCCCOC(=O)c1ccc(NC(=O)C2CCCO2)cc1 (configuration not stated) | inactive |
| C=CCn1c(SC(C)C(=O)NCc2ccc3c(c2)OCO3)nnc1C1CCCCC1 (configuration not stated) | inconclusive [inhibitor, partial curve, poor fit] |
| Cc1cccc(-n2ncc3c(NCCc4ccc(S(N)(=O)=O)cc4)ncnc32)c1 | inconclusive [inhibitor, partial curve] |
| NC(=O)N1c2ccccc2C=Cc2ccccc21 | inactive |
| Cc1nn(-c2ccccc2)c(Cl)c1/C=C/C(=O)c1ccc(O)cc1 | inconclusive [inhibitor, single point] |
| Cc1nc2ccc(S(=O)(=O)N(C)CC(=O)Nc3ccccc3F)cc2s1 | inactive |
| COC(=O)CSc1nnc(-c2sc3ccccc3c2Cl)o1 | inconclusive [inhibitor, partial curve] |

| Structure (SMILES) | Potency |
| --- | --- |
| COc1ccc(-c2ccc(-c3noc(-c4cccs4)n3)c(OC)n2)cc1 | inconclusive [inhibitor, partial curve] |
| O=C(c1ccco1)N1CCN(c2ncnc3c2oc2ccccc23)CC1 | inconclusive [inhibitor, single point] |
| CSc1ccccc1-n1nnnc1SCC(=O)Nc1cc(C)ccc1C | active: 14.1 µM |
| COc1ccc(-n2c(C)cc(C(=O)CN3C(=O)C(=O)N(Cc4ccccc4)C3=O)c2C)cc1 | inconclusive [inhibitor, full curve, poor fit] |
| O=C(c1ccc2ccccc2c1)N1CCN(S(=O)(=O)/C=C/c2ccccc2)CC1 | inconclusive [inhibitor, single point] |
| COc1ccc(CNC(=O)CCS(=O)(=O)c2cccc3nonc23)cc1 | active: 17.8 µM |
| Cc1c(/C=N\NC(=O)c2ccc([N+](=O)[O-])cc2)cnn1C | inactive |
| O=c1[nH]c(=O)n(Cc2ccco2)c2c1C(C(F)(F)F)(C(F)(F)F)N=C(CCC1CCCCC1)N2 | inconclusive [inhibitor, partial curve] |
| CCOC(=O)c1cc2ccc(OC)cc2oc1=O | inconclusive [inhibitor, partial curve] |
| O=C(CN(Cc1ccco1)C(=O)c1cc(=O)[nH]c2ccccc12)Nc1ccccc1C(F)(F)F | inconclusive [inhibitor, partial curve] |
| CCOC(=O)Cn1nc(-c2ccc(C)cc2)ccc1=O | inconclusive [inhibitor, single point] |
| CCN1CCCC1Cn1c(-c2ccccc2)nc2c(N3CCOCC3)nc(C)nc21 (configuration not stated) | inconclusive [inhibitor, single point] |
| Nc1cc(=O)[nH]c(SCC(=O)Nc2ccc(S(=O)(=O)N3CCOCC3)cc2)n1 | inconclusive [inhibitor, single point] |
| Cc1nn(CCC(=O)NNC(=S)Nc2ccc([N+](=O)[O-])cc2)c(C)c1[N+](=O)[O-] | active: 4.47 µM |
| Cn1c(SCC(=O)NCC2CCCO2)nnc1-c1c[nH]c2ccccc12 (configuration not stated) | inactive |
| CCCc1nc2ccc(NC(=O)c3cccs3)cc2c(=O)n1Cc1ccccc1Cl | inconclusive [inhibitor, single point] |
| CCN(CC)S(=O)(=O)c1cc(C(=O)Nc2ccc(Cl)cn2)ccc1C | inconclusive [inhibitor, single point] |
| O=C1Nc2ccccc2/C1=N/c1sc2c(c1C(=O)NCCc1ccccc1)CCCC2 | inconclusive [inhibitor, partial curve] |
| CCOC(=O)N/N=C/c1c(C)nn(-c2ccccc2Cl)c1Cl | inactive |
| O=C(Cn1cnc2sc(-c3ccccc3)cc2c1=O)NCc1ccco1 | inconclusive [inhibitor, single point] |
| Cc1nc2c(C(=O)NCCc3ccccc3Cl)c[nH]n2c(=O)c1Cl | inconclusive [inhibitor, single point] |
